# Measured values reported in PubChem BioAssay (Tox21).
# Values joined by “and” are separate entries in the source; they are usually repeats but may differ in a detail not shown here. Equal entries are not always repeated. The inconclusive results got no clear call from the source; some entries with a clear call stand among them for comparison. For some of these results: Potencies of inconclusive entries are doubtful fits and often do not repeat. Active and inactive are the calls of the source. Unless noted, calls come from the whole dose curve.
# Tests used:
# [1] = target: Peroxisome proliferator-activated receptor gamma (Homo sapiens) (UniProt P37231); experiment: qHTS assay to identify small molecule antagonists of the peroxisome proliferator-activated receptor gamma (PPARg) signaling pathway (AID 743191); conditions: HEK293H PPARg-UAS-bla, beta-lactamase ratio, antagonist, 17 h; ratio activity, negative = inhibition: at 62.6 µM (top of the series) unless noted; note: nearly all actives have a fitted effect of over 30% in size; note: potency is the fitted concentration of half-maximal effect; for ratio activity, negative = inhibition: % is set by controls: 0 for no effect and ±100 for the full control effect
# Chain of UniProt P37231 (P37231 whole entry, looked up): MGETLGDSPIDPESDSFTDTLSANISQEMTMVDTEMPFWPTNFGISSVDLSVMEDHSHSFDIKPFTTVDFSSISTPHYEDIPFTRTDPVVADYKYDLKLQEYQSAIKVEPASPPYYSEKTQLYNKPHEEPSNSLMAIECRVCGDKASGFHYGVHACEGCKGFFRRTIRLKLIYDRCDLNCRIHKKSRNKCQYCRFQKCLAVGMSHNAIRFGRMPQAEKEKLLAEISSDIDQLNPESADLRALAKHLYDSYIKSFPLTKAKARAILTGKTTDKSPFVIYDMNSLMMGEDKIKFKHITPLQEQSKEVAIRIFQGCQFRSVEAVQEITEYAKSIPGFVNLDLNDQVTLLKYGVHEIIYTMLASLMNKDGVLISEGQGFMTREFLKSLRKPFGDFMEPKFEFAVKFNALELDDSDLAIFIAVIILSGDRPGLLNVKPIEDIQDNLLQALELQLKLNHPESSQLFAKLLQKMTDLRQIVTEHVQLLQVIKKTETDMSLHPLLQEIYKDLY
# Procedure, shortened: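 GeneBLAzer PPARg UAS-bla HEK293H cells carrying a UAS-driven beta-lactamase reporter were plated at 3000 cells/well, preincubated 5 h at 37C, then given compound for 17 h at 37C; LiveBLAzer B/G FRET substrate was read after 1 h at room temperature.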
# [2] = qHTS assay to identify small molecule antagonists of the peroxisome proliferator-activated receptor gamma (PPARg) signaling pathway - cell viability counter screen (AID 743194; active = well fitted curve in the direction sought with a large enough effect in the repeat runs; inconclusive = weak or mixed curves; inactive = no such curve, though single readings can be large; an effect the other way counts as inactive or inconclusive; note: potency is the fitted concentration of half-maximal effect; nearly all actives have a fitted effect of over 55% in size); conditions: PPARg-bla HEK293H viability, CellTiter-Glo luminescence, 17 h; Potency: co-treated with 50 nM rosiglitazone unless noted; activity change, negative = cytotoxicity: at 62.6 µM (top of the series), co-treated with 50 nM rosiglitazone unless noted
# Procedure, shortened: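 PPARg-UAS-bla HEK293H cells were plated, rested 5 h at 37 C, then treated with compounds plus rosiglitazone (50 nM final) for 17 h at 37 C; viability was then read by CellTiter-Glo luminescence after 30 min at room temperature.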
# [3] = qHTS assay for small molecule agonists of the antioxidant response element (ARE) signaling pathway (AID 743202; active = well fitted activation curve with a large enough effect in the signal ratio in the repeat runs, not every such curve was filed as active; inconclusive = weak or mixed curves, or effect the other way; inactive = no such curve, though single readings can be large or run the other way; the % refers to the signal ratio; note: potency is the fitted concentration of half-maximal effect); conditions: HepG2 ARE-bla reporter, beta-lactamase FRET, 16 h
# Procedure, shortened: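 Read-out: LiveBLAzer B/G FRET substrate fluorescence after 2 h at room temperature, following 16 h compound treatment at 37 C of HepG2 cells carrying an ARE-driven beta-lactamase reporter.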
# [4] = target: Peroxisome proliferator-activated receptor delta (Homo sapiens) (UniProt Q03181); experiment: qHTS assay to identify small molecule antagonists of the peroxisome proliferator-activated receptor delta (PPARd) signaling pathway (AID 743215; active = well fitted inhibition curve with a large enough effect in the signal ratio in the repeat runs, not every such curve was filed as active; inconclusive = weak or mixed curves, or effect the other way; inactive = no such curve, though single readings can be large or run the other way; the % refers to the signal ratio;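 note: cells stimulated with agonist L165041 at 300 nM final during compound exposure; % is set by controls: 0 for no effect and ±100 for the full control effect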); conditions: HEK293H PPARd-UAS-bla, beta-lactamase FRET ratio, antagonist, 17 h; ratio activity, negative = inhibition: at 62 µM (top of the series) unless noted
# Chain of UniProt Q03181 (Q03181 whole entry, looked up): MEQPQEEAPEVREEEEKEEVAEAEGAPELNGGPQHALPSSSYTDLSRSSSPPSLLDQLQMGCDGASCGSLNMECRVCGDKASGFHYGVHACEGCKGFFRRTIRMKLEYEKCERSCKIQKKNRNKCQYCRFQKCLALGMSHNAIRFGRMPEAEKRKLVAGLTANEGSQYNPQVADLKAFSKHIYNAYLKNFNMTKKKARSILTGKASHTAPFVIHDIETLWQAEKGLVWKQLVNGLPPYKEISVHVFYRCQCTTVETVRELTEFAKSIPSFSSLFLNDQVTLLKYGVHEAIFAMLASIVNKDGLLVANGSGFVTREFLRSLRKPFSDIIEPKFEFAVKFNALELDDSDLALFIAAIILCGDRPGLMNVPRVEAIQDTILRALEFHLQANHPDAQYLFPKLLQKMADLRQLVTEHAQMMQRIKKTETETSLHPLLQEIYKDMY
# Procedure, shortened: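 PPARd-bla HEK293H cells (UAS-bla reporter) preincubated 5 h, then given compound plus 300 nM final L165041 agonist for 17 h at 37 C. Beta-lactamase activity read by LiveBLAzer B/G FRET substrate fluorescence after 2 h at room temperature.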
# [5] = target: Vitamin D3 receptor (Homo sapiens) (UniProt P11473); experiment: qHTS assay to identify small molecule antagonists of the vitamin D receptor (VDR) signaling pathway (AID 743223; active = well fitted inhibition curve with a large enough effect in the signal ratio in the repeat runs, not every such curve was filed as active; inconclusive = weak or mixed curves, or effect the other way; inactive = no such curve, though single readings can be large or run the other way; the % refers to the signal ratio; note: % is set by controls: 0 for no effect and ±100 for the full control effect); conditions: VDR-UAS-bla HEK293T, beta-lactamase FRET ratio, 16 h; activity change, negative = inhibition: at 61 µM (top of the series) unless noted
# Chain of UniProt P11473 (P11473 whole entry, looked up): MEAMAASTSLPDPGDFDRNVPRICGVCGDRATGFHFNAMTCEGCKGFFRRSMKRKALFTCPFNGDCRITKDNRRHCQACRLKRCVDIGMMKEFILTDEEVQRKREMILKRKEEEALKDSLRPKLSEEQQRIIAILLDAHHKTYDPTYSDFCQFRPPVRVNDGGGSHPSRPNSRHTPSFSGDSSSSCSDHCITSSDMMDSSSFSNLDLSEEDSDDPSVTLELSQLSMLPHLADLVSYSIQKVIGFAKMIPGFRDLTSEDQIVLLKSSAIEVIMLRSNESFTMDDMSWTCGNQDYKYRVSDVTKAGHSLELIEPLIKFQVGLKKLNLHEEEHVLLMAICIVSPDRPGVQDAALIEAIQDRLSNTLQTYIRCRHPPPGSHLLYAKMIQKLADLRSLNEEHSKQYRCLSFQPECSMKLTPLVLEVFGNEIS
# Procedure, shortened: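 Beta-lactamase reporter read-out: FRET substrate fluorescence after 2 h at room temperature, following 16 h exposure of VDR-bla cells to test compound plus 3 nM (final) 1alpha,25-dihydroxyvitamin D3 agonist at 37C.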
# [6] = qHTS assay to identify small molecule agonists of the endoplasmic reticulum stress response signaling pathway (AID 1159516; active = well fitted activation curve with a large enough effect in the signal ratio in the repeat runs, not every such curve was filed as active; inconclusive = weak or mixed curves, or effect the other way; the % refers to the signal ratio; note: potency is the fitted concentration of half-maximal effect); conditions: ESRE-bla HeLa, ER stress beta-lactamase reporter, 5 h; activation: at 61 µM (top of the series) unless noted
# Procedure, shortened: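 CellSensor ESRE-bla HeLa cells, 1,500 per well, plated overnight, then exposed to compounds for 5 hr at 37 C. Beta-lactamase reporter read with LiveBLAzer B/G FRET substrate after 2 hr at room temperature, 405 nm excitation, 460 and 530 nm emission.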
# [7] = target: Bile acid receptor (Homo sapiens) (UniProt Q96RI1); experiment: qHTS assay to identify small molecule antagonists of the farnesoid-X-receptor (FXR) signaling pathway (AID 743217; active = well fitted inhibition curve with a large enough effect in the signal ratio in the repeat runs, not every such curve was filed as active; inconclusive = weak or mixed curves, or effect the other way; inactive = no such curve, though single readings can be large or run the other way; the % refers to the signal ratio; note: potency is the fitted concentration of half-maximal effect); conditions: HEK293T FXR-UAS-bla, beta-lactamase ratio, CDCA-stimulated, 16 h; activity change, negative = inhibition: at 62.6 µM (top of the series) unless noted
# Chain of UniProt Q96RI1 (Q96RI1 whole entry, looked up): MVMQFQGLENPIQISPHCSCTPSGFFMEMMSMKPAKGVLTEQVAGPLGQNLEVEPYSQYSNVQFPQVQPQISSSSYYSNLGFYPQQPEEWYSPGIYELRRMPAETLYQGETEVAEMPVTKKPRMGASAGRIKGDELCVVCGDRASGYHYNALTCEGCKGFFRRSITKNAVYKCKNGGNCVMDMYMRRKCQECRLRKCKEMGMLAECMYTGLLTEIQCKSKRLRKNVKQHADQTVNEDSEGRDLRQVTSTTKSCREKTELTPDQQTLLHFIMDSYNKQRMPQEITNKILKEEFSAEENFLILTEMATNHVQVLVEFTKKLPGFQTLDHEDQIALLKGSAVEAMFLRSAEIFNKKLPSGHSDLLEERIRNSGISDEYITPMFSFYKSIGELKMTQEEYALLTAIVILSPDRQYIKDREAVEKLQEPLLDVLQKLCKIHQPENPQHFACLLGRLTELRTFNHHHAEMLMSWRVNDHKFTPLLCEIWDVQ
# Procedure, shortened: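 FXR-UAS-bla HEK 293T cells (beta-lactamase reporter) given compound plus chenodeoxycholic acid (50 uM final), 16 h at 37C. LiveBLAzer B/G FRET substrate added for 2 h at room temperature; fluorescence read.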
# [8] = qHTS assay to identify small molecule agonists of the farnesoid-X-receptor (FXR) signaling pathway - cell viability counter screen (AID 743218; active = well fitted curve in the direction sought with a large enough effect in the repeat runs; inconclusive = weak or mixed curves; inactive = no such curve, though single readings can be large; an effect the other way counts as inactive or inconclusive; note: nearly all actives have a fitted effect of over 45% in size; note: potency is the fitted concentration of half-maximal effect); conditions: FXR-bla HEK293T viability, CellTiter-Glo luminescence, 16 h; viability change, negative = cytotoxic: at 62.6 µM (top of the series) unless noted
# Procedure, shortened: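 FXR-UAS-bla HEK 293T cells exposed to compounds for 16 h at 37C. Cytotoxicity read in the same wells by CellTiter-Glo luminescence after 30 min at room temperature, following the beta-lactamase FRET read.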
# [9] = qHTS assay to identify small molecule antagonists of the farnesoid-X-receptor (FXR) signaling pathway - cell viability counter screen (AID 743221; active = well fitted cell-killing curve with a large enough effect in the repeat runs, not every such curve was filed as active; inconclusive = weak or mixed curves, or effect the other way; inactive = no such curve, though single readings can be large or run the other way; note: % is set by controls: 0 for no effect and ±100 for the full control effect; nearly all actives have a fitted effect of over 50% in size); conditions: FXR-bla HEK293T viability, CellTiter-Glo luminescence, 16 h; activity change, negative = cytotoxicity: at 62.6 µM (top of the series) unless noted
# Procedure, shortened: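 HEK 293T FXR-bla cells, 5 h pre-incubation; compound + CDCA 50 uM final, 16 h, 37 C; beta-lactamase FRET read first, then CellTiter-Glo luminescence, 30 min RT.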
# [10] = qHTS assay for small molecule activators of the heat shock response signaling pathway - cell viability counter screen (AID 743209; active = well fitted curve in the direction sought with a large enough effect in the repeat runs; inconclusive = weak or mixed curves; inactive = no such curve, though single readings can be large; an effect the other way counts as inactive or inconclusive; note: potency is the fitted concentration of half-maximal effect; nearly all actives have a fitted effect of over 50% in size); conditions: HSE-bla HeLa viability, CellTiter-Glo luminescence, 5 h; activity change, negative = cytotoxicity: at 62.6 µM (top of the series) unless noted
# Procedure, shortened: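 HSE-bla HeLa cells plated overnight, then exposed to Tox21 compounds (23 nL in DMSO) for 5 h at 37 C. After the bla reporter read, CellTiter-Glo was added in the same wells and luminescence read after 30 min at room temperature.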
# [11] = target: Bile acid receptor (Homo sapiens) (UniProt Q96RI1); experiment: qHTS assay to identify small molecule agonists of the farnesoid-X-receptor (FXR) signaling pathway (AID 743220; active = well fitted activation curve with a large enough effect in the signal ratio in the repeat runs, not every such curve was filed as active; inconclusive = weak or mixed curves, or effect the other way; the % refers to the signal ratio; note: % is set by controls: 0 for no effect and ±100 for the full control effect); conditions: HEK293T FXR-UAS-bla, beta-lactamase FRET ratio, 16 h; activation: at 62.6 µM (top of the series) unless noted
# Procedure, shortened: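 Beta-lactamase reporter under UAS control in GeneBLAzer FXR HEK 293T cells (5000/well) measured with LiveBLAzer FRET substrate after 2 h at room temperature. Compound exposure lasted 16 h at 37C.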
# [12] = qHTS assay to identify small molecule antagonists of the vitamin D receptor (VDR) signaling pathway - cell viability counter screen (AID 743225; active = well fitted curve in the direction sought with a large enough effect in the repeat runs; inconclusive = weak or mixed curves; inactive = no such curve, though single readings can be large; an effect the other way counts as inactive or inconclusive; note: nearly all actives have a fitted effect of over 50% in size; note: potency is the fitted concentration of half-maximal effect); conditions: VDR-bla HEK293T viability, CellTiter-Glo luminescence, 16 h; viability change, negative = cytotoxic: at 61 µM (top of the series) unless noted
# Procedure, shortened: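 Viability counter screen run in the same wells as the beta-lactamase reporter assay: HEK 293T VDR-UAS-bla cells, 16 h compound exposure at 37C with 3 nM (final) 1-alpha,25-dihydroxyvitamin D3. CellTiter-Glo luminescence, 30 min, room temperature.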
# [13] = qHTS assay for small molecule agonists of the antioxidant response element (ARE) signaling pathway - cell viability counter screen (AID 743203); note: potency is the fitted concentration of half-maximal effect; nearly all actives have a fitted effect of over 55% in size
# Procedure, shortened: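 ARE-bla HepG2 cells were plated, rested 5 h at 37C/5% CO2, then exposed to compounds in DMSO for 16 h. Viability was read as CellTiter-Glo luminescence after 30 min at room temperature, in the same wells as the ARE screen.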
# [14] = qHTS assay for small molecule activators of the heat shock response signaling pathway (AID 743210; active = well fitted activation curve with a large enough effect in the signal ratio in the repeat runs, with a control signal flat, not every such curve was filed as active; inconclusive = weak or mixed curves; the % refers to the signal ratio; note: potency is the fitted concentration of half-maximal effect); conditions: HeLa HSE-bla reporter, beta-lactamase ratio, 5 h; activation: at 62.6 µM (top of the series)
# Procedure, shortened: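 HSE-bla HeLa cells (beta-lactamase reporter under heat shock response elements) were exposed to compounds for 5 h at 37 C, then loaded with LiveBLAzer B/G FRET substrate for 2.5 h at room temperature before fluorescence reading.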
# [15] = qHTS assay to identify small molecule agonists of the peroxisome proliferator-activated receptor delta (PPARd) signaling pathway - cell viability counter screen (AID 743211; active = well fitted curve in the direction sought with a large enough effect in the repeat runs; inconclusive = weak or mixed curves; inactive = no such curve, though single readings can be large; an effect the other way counts as inactive or inconclusive; note: potency is the fitted concentration of half-maximal effect; nearly all actives have a fitted effect of over 55% in size); conditions: PPARd-bla HEK293H viability, CellTiter-Glo luminescence, 17 h; activity change, negative = cytotoxicity: at 62.6 µM (top of the series) unless noted
# Procedure, shortened: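 Read-out: CellTiter-Glo luminescence, 30 min RT, measured in the same wells as the beta-lactamase reporter. Cells: GeneBLAzer PPAR delta UAS-bla HEK293H, 3000 cells/well, compound exposure 17 h at 37C.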
# [16] = target: Peroxisome proliferator-activated receptor delta (Homo sapiens) (UniProt Q03181); experiment: qHTS assay to identify small molecule agonists of the peroxisome proliferator-activated receptor delta (PPARd) signaling pathway (AID 743212); conditions: HEK293H PPARd-UAS-bla, beta-lactamase FRET ratio, 17 h; activation: at 62.6 µM (top of the series) unless noted; note: potency is the fitted concentration of half-maximal effect
# Procedure, shortened: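 GeneBLAzer PPARd UAS-bla HEK293H cells (beta-lactamase reporter under UAS control), plated and rested 5 h at 37 C, then exposed to compounds in DMSO at 37 C; LiveBLAzer B/G FRET substrate added, 2 h room temperature, fluorescence read.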
# [17] = qHTS assay to identify small molecule antagonists of the peroxisome proliferator-activated receptor delta (PPARd) signaling pathway - cell viability counter screen (AID 743213; active = well fitted curve in the direction sought with a large enough effect in the repeat runs; inconclusive = weak or mixed curves; inactive = no such curve, though single readings can be large; an effect the other way counts as inactive or inconclusive; note: potency is the fitted concentration of half-maximal effect; nearly all actives have a fitted effect of over 50% in size); conditions: PPARd-bla HEK293H viability, CellTiter-Glo luminescence, 17 h; viability change, negative = cytotoxic: at 62 µM (top of the series) unless noted
# Procedure, shortened: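 Luminescence from CellTiter-Glo, added after the bla read and incubated 30 min at room temperature, gives viability of HEK293H PPARd-bla cells exposed to compounds for 17 h at 37 C with 300 nM L165041.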
# [18] = activation: at 73.3 µM (top of the series) unless noted
# Tags give direction and shape of the fitted curve or compound fluorescence and quenching.
compound,measurement,setting,value
ClCc1ccc(Cl)cc1Cl,"ratio activity, negative = inhibition",[1],inconclusive: -36.2%
same,Potency,[2],"inconclusive: 43.6 µM [cytotoxic, partial curve]"
same,activation,[3]; [18],inconclusive: 40.2%
same,Potency,[4],inactive
same,Potency,[5],inactive
same,activation,[6],inconclusive: -11.9%
C#C[C@]1(O)CC[C@H]2[C@@H]3CCC4=CC(=O)CC[C@]4(C)[C@H]3CC[C@@]21C,"ratio activity, negative = inhibition",[1],inconclusive: 0.439% and inconclusive: -0.78%
same,activation,[3]; [18],inconclusive: 14.4%
same,activation,[3]; at 73.3 µM (top of the series),inactive: 3.61%
same,"ratio activity, negative = inhibition",[4],inconclusive: 12.3%
same,Potency,[7],inactive
same,Potency,[8],inactive
same,Potency,[9],inactive
same,Potency,[6],"inconclusive: 15.1 µM [activator, single point]"
Cc1ccc(N)cc1Cl,Potency,[1],inactive
same,activation,[3]; [18],inconclusive: -6.48% [at 94.8 µM]
same,Potency,[10],"inconclusive: 62.4 µM [cytotoxic, single point]"
same,Potency,[6],inactive
O=P(O)(O)CCCl,"ratio activity, negative = inhibition",[1],inconclusive: -6.45%
same,Potency,[2],"inconclusive: 0.0173 µM [cytotoxic, full curve, poor fit]"
same,Potency,[3]; [18],inactive
same,Potency,[11],inactive
same,"viability change, negative = cytotoxic",[12],inconclusive: 9.75%
same,activation,[6],inconclusive: 0.266% [at 78.8 µM]
CCN(CC)C(=O)/C(Cl)=C(\C)OP(=O)(OC)OC,Potency,[1],"inconclusive: 7.94 µM [inhibitor, partial curve, poor fit] and inconclusive: 54.9 µM [inhibitor]"
same,activation,[3]; [18],inconclusive: -7.14%
same,Potency,[6],"inconclusive: 0.112 µM [cytotoxic, full curve, poor fit]"
Oc1cc(Cl)c(Cl)c(Cl)c1Cl,Potency,[1],"inconclusive: 24 µM [rising, partial curve]"
same,Potency,[3]; [18],"inconclusive: 16.8 µM [rising, full curve, poor fit]"
same,Potency,[13],"inconclusive: 4.74 µM [cytotoxic, full curve]"
same,Potency,[10],active: 13.5 µM
same,Potency,[14],"inconclusive: 38 µM [rising, partial curve, poor fit]"
same,Potency,[15],"inconclusive: 17 µM [cytotoxic, partial curve]"
same,Potency,[16],"inconclusive: 60.2 µM [rising, partial curve, poor fit]"
same,Potency,[17],"inconclusive: 53.7 µM [cytotoxic, partial curve, poor fit]"
same,"ratio activity, negative = inhibition",[4],inconclusive: -45%
same,Potency,[7],inconclusive: 53.7 µM [single point]
same,Potency,[8],active: 47.8 µM
same,Potency,[12],"inconclusive: 3.02 µM [cytotoxic, full curve]"
same,Potency,[6],"inconclusive: 60.2 µM [falling, single point]"
